In all, about 310,000 compounds went through this assay and about 2,200 (0.71%) showed an effect of 50% or more. The effect is printed as a negative number. This is one part of the list.
Each molecule was assayed against human ether-à-go-go-related gene (hERG) potassium channel (human, UniProt Q12809) (assay: primary screen, population patch clamp on CHO cells stably expressing hERG).
Sequence of human ether-à-go-go-related gene (hERG) potassium channel (Q12809 whole entry, looked up): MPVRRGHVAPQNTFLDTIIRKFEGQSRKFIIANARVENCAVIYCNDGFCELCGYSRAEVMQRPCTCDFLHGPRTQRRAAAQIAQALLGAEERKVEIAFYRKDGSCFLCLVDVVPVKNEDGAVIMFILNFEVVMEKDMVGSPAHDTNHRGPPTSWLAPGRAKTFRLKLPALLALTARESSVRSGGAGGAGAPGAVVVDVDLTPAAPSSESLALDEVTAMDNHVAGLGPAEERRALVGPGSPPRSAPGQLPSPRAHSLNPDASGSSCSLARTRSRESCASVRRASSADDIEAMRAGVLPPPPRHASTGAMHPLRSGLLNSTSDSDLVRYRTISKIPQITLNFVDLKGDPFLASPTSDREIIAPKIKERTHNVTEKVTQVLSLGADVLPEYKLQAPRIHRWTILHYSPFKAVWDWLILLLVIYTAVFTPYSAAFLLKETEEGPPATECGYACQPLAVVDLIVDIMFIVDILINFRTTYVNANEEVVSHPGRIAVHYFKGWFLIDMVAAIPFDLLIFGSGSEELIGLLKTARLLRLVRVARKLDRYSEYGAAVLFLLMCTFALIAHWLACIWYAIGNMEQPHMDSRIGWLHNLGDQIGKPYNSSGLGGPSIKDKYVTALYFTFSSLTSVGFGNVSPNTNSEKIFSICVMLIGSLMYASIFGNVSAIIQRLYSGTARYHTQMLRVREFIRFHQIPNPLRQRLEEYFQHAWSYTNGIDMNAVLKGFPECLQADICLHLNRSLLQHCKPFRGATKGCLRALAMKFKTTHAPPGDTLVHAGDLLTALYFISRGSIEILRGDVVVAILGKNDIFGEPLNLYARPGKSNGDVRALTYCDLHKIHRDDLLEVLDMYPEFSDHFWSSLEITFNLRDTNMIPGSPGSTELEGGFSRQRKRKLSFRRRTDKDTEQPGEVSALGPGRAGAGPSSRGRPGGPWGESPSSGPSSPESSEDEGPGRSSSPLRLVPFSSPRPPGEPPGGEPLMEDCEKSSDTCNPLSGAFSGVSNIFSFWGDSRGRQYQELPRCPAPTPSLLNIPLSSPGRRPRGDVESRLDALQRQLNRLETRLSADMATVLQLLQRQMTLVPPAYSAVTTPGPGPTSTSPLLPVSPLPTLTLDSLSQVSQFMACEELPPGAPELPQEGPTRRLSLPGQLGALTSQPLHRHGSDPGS
O=c1c2ccccc2nc2sc(Nc3ccc(F)cc3)nn12 was tested, and the “hERG current change (%, negative = inhibition) at 1uM” value was -0.635%. In the case of O=S(=O)(Nc1ccc2ccccc2n1)c1ccccc1Cl, the “hERG current change (%, negative = inhibition) at 1uM” value is reported as 1.8%. Cc1ccc(CNC(=O)C2(c3cccs3)CCOCC2)cc1 was tested, and the “hERG current change (%, negative = inhibition) at 1uM” value was -0.342%. With CCCCNS(=O)(=O)c1ccc(NC(=O)c2c(-c3ccccc3Cl)noc2C)cc1 the “hERG current change (%, negative = inhibition) at 1uM” value was 9.85%. For N=c1c2c(ncn1CCCO)Oc1ccc3ccccc3c1C2c1ccccc1 (stereo not drawn), the “hERG current change (%, negative = inhibition) at 1uM” value was 3.38%. For CC1(C)CC(=O)C2=C(C1)c1c(ccc3ccccc13)NC2c1ccc(OCC(=O)O)cc1 (stereo not drawn), the “hERG current change (%, negative = inhibition) at 1uM” value was 10.8%. O=C(/C=C/c1ccccc1)NCCSc1ccc(Cl)cc1 was tested, and the “hERG current change (%, negative = inhibition) at 1uM” value was 10.7%. COc1cccc(NC(=O)CSCc2cc(=O)n3ccsc3n2)c1 was tested, and the “hERG current change (%, negative = inhibition) at 1uM” value was 4.88%. In the case of COc1cc(SC#N)ccc1N=Cc1c(C)[nH]n(-c2ccc(C)cc2)c1=O, the “hERG current change (%, negative = inhibition) at 1uM” value is reported as -5.65%. CCCS(=O)(=O)N1CCC(C(=O)NCc2ccc3c(c2)OCO3)CC1 was tested, and the “hERG current change (%, negative = inhibition) at 1uM” value was -0.895%. For O=C(O)COc1ccccc1/C=N/NC(=O)CSc1nc2ccccc2c(=O)n1-c1ccccc1, the “hERG current change (%, negative = inhibition) at 1uM” value was 5.27%. Cc1cc(C(=O)N/N=C/c2ccc(N(C)C)cc2)c2ccccc2n1 was tested, and the “hERG current change (%, negative = inhibition) at 1uM” value was 18.7%. COc1ccc(S(=O)(=O)N2CCOC2CNC(=O)C(=O)NCCc2ccccc2)cc1C (stereo not drawn) was tested, and the “hERG current change (%, negative = inhibition) at 1uM” value was 7.75%. With Cc1ccc(OCc2cc(C(=O)N3CCC(Oc4cccnc4)CC3)no2)cc1C the “hERG current change (%, negative = inhibition) at 1uM” value was -9.84%. Cc1ccc(C)c(Cn2c(=O)n(-c3ccc(CC(=O)NCc4ccco4)cc3)c(=O)c3sccc32)c1 was tested, and the “hERG current change (%, negative = inhibition) at 1uM” value was 5.54%. For Cc1c(C(=O)N(C)CCn2ccnc2C)oc2c(F)cccc12, the “hERG current change (%, negative = inhibition) at 1uM” value was -3.26%. With CCOc1ccccc1OCCOc1ccccc1CC the “hERG current change (%, negative = inhibition) at 1uM” value was 17.7%. In the case of COc1ccc(OC)c(NC(=O)CSc2nnc(C3CCCCC3)n2-c2ccccc2)c1, the “hERG current change (%, negative = inhibition) at 1uM” value is reported as 10.2%. In the case of O=C(c1ccncc1)c1ccc(NC(=O)c2cccs2)cc1, the “hERG current change (%, negative = inhibition) at 1uM” value is reported as 14.7%. For c1ccc(-c2ccc(C3CCCN3)cc2)cc1 (stereo not drawn), the “hERG current change (%, negative = inhibition) at 1uM” value was 7.34%. For Cc1noc(C)c1C(=O)N1CCCC(C(=O)c2cccc(C(F)(F)F)c2)C1 (stereo not drawn), the “hERG current change (%, negative = inhibition) at 1uM” value was -6.11%. For Cc1ccc(C)c(NC(=S)NNC(=S)Nc2ccc(C(C)C)cc2)c1, the “hERG current change (%, negative = inhibition) at 1uM” value was 22.4%. With CCOc1ccc(CNC(=O)CCc2cn(C)c3ccccc23)cc1OC the “hERG current change (%, negative = inhibition) at 1uM” value was -6.4%. In the case of Cc1cc(C)c2c(c1)/C(=N\N=c1\sc3ccccc3n1C)C(=O)N2, the “hERG current change (%, negative = inhibition) at 1uM” value is reported as 13.2%.
